Test system: DC3000
Assay: broth micro-dilution assay, direct antimicrobial effect
Format: cell-based, Pseudomonas syringae pv tomato
Conditions: 1 ml of 10 mM stock˜88 μg

SMILES: CC(=O)C(C)O (stereo not shown) [acetoin, 3-hydroxy-2-butanone]
- susceptibility of DC3000 to direct antimicrobial treatment: not susceptible

Source: patent US9023758B2, “Methods for promoting plant health” (University of Delaware, priority 2009, dated 2015)
